Laboratory results reported in the supplement of paper PMC8728848.
This is one part of the list.

Assays:
Test in all cases: glycan array binding signal (z-score within array); higher = stronger binding
Settings in all cases: glycan notation: IUPAC condensed, linker removed
[1] = biological target: Fuc(a1-2)Gal6S(b1-3)GlcNAc
Method in brief: (§1)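 The binding signal is a Z-score computed within each array. Data were drawn from 3228 arrays in the Consortium for Functional Glycomics database, restricted to those with a known protein sequence. Scores were averaged over arrays of the same protein sequence at different concentrations or buffers, and over linkers, and negative values can be taken as non-binding.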

[2] = biological target: Fuc(a1-2)Gal6S(b1-3)GlcNAc6S
Method in brief: as §1

Fuc(a1-2)Gal6S(b1-4)Glc = biological target: Fuc(a1-2)Gal6S(b1-4)Glc
Method in brief: as §1

[3] = biological target: Fuc(a1-2)Gal6S(b1-4)Glc6S
Method in brief: as §1

Fuc(a1-2)[Gal(a1-3)]Gal = biological target: Fuc(a1-2)[Gal(a1-3)]Gal
Method in brief: as §1

[4] = biological target: Fuc(a1-2)[Gal(a1-3)]Gal(b1-3)GalNAc
Method in brief: as §1

[5] = biological target: Fuc(a1-2)[Gal(a1-3)]Gal(b1-3)GalNAc(b1-3)Gal(a1-4)Gal(b1-4)Glc
Method in brief: as §1

[6] = biological target: Fuc(a1-2)[Gal(a1-3)]Gal(b1-3)GlcNAc
Method in brief: as §1

[7] = biological target: Fuc(a1-2)[Gal(a1-3)]Gal(b1-3)GlcNAc(b1-2)Man(a1-3)[Fuc(a1-2)[Gal(a1-3)]Gal(b1-3)GlcNAc(b1-2)Man(a1-6)]Man(b1-4)GlcNAc(b1-4)GlcNAc
Method in brief: as §1

[8] = biological target: Fuc(a1-2)[Gal(a1-3)]Gal(b1-3)GlcNAc(b1-2)Man(a1-3)[Fuc(a1-2)[Gal(a1-3)]Gal(b1-3)GlcNAc(b1-2)Man(a1-6)]Man(b1-4)GlcNAc(b1-4)[Fuc(a1-6)]GlcNAc
Method in brief: as §1

[9] = biological target: Fuc(a1-2)[Gal(a1-3)]Gal(b1-3)GlcNAc(b1-3)GalNAc
Method in brief: as §1

[10] = biological target: Fuc(a1-2)[Gal(a1-3)]Gal(b1-3)GlcNAc(b1-6)GalNAc
Method in brief: as §1

[11] = biological target: Fuc(a1-2)[Gal(a1-3)]Gal(b1-4)Glc
Method in brief: as §1

[12] = biological target: Fuc(a1-2)[Gal(a1-3)]Gal(b1-4)GlcNAc
Method in brief: as §1

[13] = biological target: Fuc(a1-2)[Gal(a1-3)]Gal(b1-4)GlcNAc(b1-2)Man
Method in brief: as §1

[14] = biological target: Fuc(a1-2)[Gal(a1-3)]Gal(b1-4)GlcNAc(b1-2)Man(a1-3)[Fuc(a1-2)[Gal(a1-3)]Gal(b1-4)GlcNAc(b1-2)Man(a1-6)]Man(b1-4)GlcNAc(b1-4)GlcNAc
Method in brief: as §1

[15] = biological target: Fuc(a1-2)[Gal(a1-3)]Gal(b1-4)GlcNAc(b1-2)Man(a1-3)[Fuc(a1-2)[Gal(a1-3)]Gal(b1-4)GlcNAc(b1-2)Man(a1-6)]Man(b1-4)GlcNAc(b1-4)[Fuc(a1-6)]GlcNAc
Method in brief: as §1

[16] = biological target: Fuc(a1-2)[Gal(a1-3)]Gal(b1-4)GlcNAc(b1-3)GalNAc
Method in brief: as §1

[17] = biological target: Fuc(a1-2)[Gal(a1-3)]Gal(b1-4)GlcNAc(b1-3)[Fuc(a1-2)[Gal(a1-3)]Gal(b1-4)GlcNAc(b1-6)]GalNAc
Method in brief: as §1

[18] = biological target: Fuc(a1-2)[Gal(a1-3)]Gal(b1-4)GlcNAc(b1-6)GalNAc
Method in brief: as §1

[19] = biological target: Fuc(a1-2)[Gal(a1-3)]Gal(b1-4)[Fuc(a1-3)]Glc
Method in brief: as §1

[20] = biological target: Fuc(a1-2)[Gal(a1-3)]Gal(b1-4)[Fuc(a1-3)]GlcNAc
Method in brief: as §1

[21] = biological target: Fuc(a1-2)[Gal(a1-3)]Gal(b1-4)[Fuc(a1-3)]GlcNAc(b1-3)GalNAc
Method in brief: as §1

[22] = biological target: Fuc(a1-2)[Gal(a1-4)]Gal(b1-4)GlcNAc
Method in brief: as §1

[23] = biological target: Fuc(a1-2)[GalNAc(a1-3)]Gal
Method in brief: as §1

[24] = biological target: Fuc(a1-2)[GalNAc(a1-3)]Gal(b1-3)GalNAc(a1-3)[Fuc(a1-2)]Gal(b1-4)GlcNAc
Method in brief: as §1

[25] = biological target: Fuc(a1-2)[GalNAc(a1-3)]Gal(b1-3)GalNAc(b1-3)Gal(a1-4)Gal(b1-4)Glc
Method in brief: as §1

[26] = biological target: Fuc(a1-2)[GalNAc(a1-3)]Gal(b1-3)GlcNAc
Method in brief: as §1

[27] = biological target: Fuc(a1-2)[GalNAc(a1-3)]Gal(b1-3)GlcNAc(b1-2)Man(a1-3)[Fuc(a1-2)[GalNAc(a1-3)]Gal(b1-3)GlcNAc(b1-2)Man(a1-6)]Man(b1-4)GlcNAc(b1-4)GlcNAc
Method in brief: as §1

[28] = biological target: Fuc(a1-2)[GalNAc(a1-3)]Gal(b1-3)GlcNAc(b1-2)Man(a1-3)[Fuc(a1-2)[GalNAc(a1-3)]Gal(b1-3)GlcNAc(b1-2)Man(a1-6)]Man(b1-4)GlcNAc(b1-4)[Fuc(a1-6)]GlcNAc
Method in brief: as §1

[29] = biological target: Fuc(a1-2)[GalNAc(a1-3)]Gal(b1-3)GlcNAc(b1-3)GalNAc
Method in brief: as §1

[30] = biological target: Fuc(a1-2)[GalNAc(a1-3)]Gal(b1-3)GlcNAc(b1-6)GalNAc
Method in brief: as §1

[31] = biological target: Fuc(a1-2)[GalNAc(a1-3)]Gal(b1-4)Glc
Method in brief: as §1

[32] = biological target: Fuc(a1-2)[GalNAc(a1-3)]Gal(b1-4)GlcNAc
Method in brief: as §1

[33] = biological target: Fuc(a1-2)[GalNAc(a1-3)]Gal(b1-4)GlcNAc(b1-2)Man
Method in brief: as §1

[34] = biological target: Fuc(a1-2)[GalNAc(a1-3)]Gal(b1-4)GlcNAc(b1-2)Man(a1-3)[Fuc(a1-2)[GalNAc(a1-3)]Gal(b1-4)GlcNAc(b1-2)Man(a1-6)]Man(b1-4)GlcNAc(b1-4)GlcNAc
Method in brief: as §1

[35] = biological target: Fuc(a1-2)[GalNAc(a1-3)]Gal(b1-4)GlcNAc(b1-2)Man(a1-3)[Fuc(a1-2)[GalNAc(a1-3)]Gal(b1-4)GlcNAc(b1-2)Man(a1-6)]Man(b1-4)GlcNAc(b1-4)[Fuc(a1-6)]GlcNAc
Method in brief: as §1

[36] = biological target: Fuc(a1-2)[GalNAc(a1-3)]Gal(b1-4)GlcNAc(b1-3)Gal(b1-4)GlcNAc
Method in brief: as §1

[37] = biological target: Fuc(a1-2)[GalNAc(a1-3)]Gal(b1-4)GlcNAc(b1-3)Gal(b1-4)GlcNAc(b1-3)Gal(b1-4)GlcNAc
Method in brief: as §1

[38] = biological target: Fuc(a1-2)[GalNAc(a1-3)]Gal(b1-4)GlcNAc(b1-3)GalNAc
Method in brief: as §1

[39] = biological target: Fuc(a1-2)[GalNAc(a1-3)]Gal(b1-4)GlcNAc(b1-3)[Fuc(a1-2)[GalNAc(a1-3)]Gal(b1-4)GlcNAc(b1-6)]GalNAc
Method in brief: as §1

[40] = biological target: Fuc(a1-2)[GalNAc(a1-3)]Gal(b1-4)GlcNAc(b1-6)GalNAc
Method in brief: as §1

[41] = biological target: Fuc(a1-2)[GalNAc(a1-3)]Gal(b1-4)[Fuc(a1-3)]GlcNAc
Method in brief: as §1

[42] = biological target: Fuc(a1-2)[GalNAc(a1-3)]Gal(b1-4)[Fuc(a1-3)]GlcNAc(b1-3)GalNAc
Method in brief: as §1

[43] = biological target: Fuc(a1-2)[GalNAc(a1-4)]Gal(b1-4)GlcNAc
Method in brief: as §1

B1: SSP1 (Sclerotinia sclerotiorum), XP_001584968 (protein)
chain: MGSSHHHHHHSSGLVPRGSHMSLLTTELACTSAPDQVLHLFFQDGQNILEARSPDGGNVWTTQDTIIAKDGDYNGSSMTCYYVDKDANFDNQPSIHLLYMNKDKQLTEKVKRMKGDNPIWEDAKVPDEVRKGPEQYSKLTSGSFNQGTGWNPNGSQWAYFSASKDGKMGIVEIRRTPKDPWHTETILEEKWGDELPGTALACVIGNGKIRVFLQHHDYSIILYENQNNTWHDRGTFIPKDKVQATTPLACTMTKDGSVHLFYVSKSNKIIHCTDGKKEEELINFFPGSKLGATSVENKITLFFRNLNPVNEVGTLENENGSWKHGTTVIPA
- glycan array binding signal (z-score) [1]: -0.225
- glycan array binding signal (z-score) [2]: 0.182
- glycan array binding signal (z-score) (Fuc(a1-2)Gal6S(b1-4)Glc): -0.629
- glycan array binding signal (z-score) [3]: 0.002
- glycan array binding signal (z-score) (Fuc(a1-2)[Gal(a1-3)]Gal): -0.069
- glycan array binding signal (z-score) [4]: -0.001
- glycan array binding signal (z-score) [5]: -0.655
- glycan array binding signal (z-score) [6]: 0.084
- glycan array binding signal (z-score) [7]: 0.27
- glycan array binding signal (z-score) [8]: 0.036
- glycan array binding signal (z-score) [9]: -0.411
- glycan array binding signal (z-score) [10]: 7.05
- glycan array binding signal (z-score) [11]: -0.256
- glycan array binding signal (z-score) [12]: 0.187
- glycan array binding signal (z-score) [13]: -0.358
- glycan array binding signal (z-score) [14]: -0.463
- glycan array binding signal (z-score) [15]: 0.111
- glycan array binding signal (z-score) [16]: -0.1
- glycan array binding signal (z-score) [17]: 0.312
- glycan array binding signal (z-score) [18]: -0.15
- glycan array binding signal (z-score) [19]: -0.518
- glycan array binding signal (z-score) [20]: -0.327
- glycan array binding signal (z-score) [21]: -0.518
- glycan array binding signal (z-score) [22]: 0.208
- glycan array binding signal (z-score) [23]: 0.125
- glycan array binding signal (z-score) [24]: -0.669
- glycan array binding signal (z-score) [25]: -0.154
- glycan array binding signal (z-score) [26]: -0.089
- glycan array binding signal (z-score) [27]: -0.434
- glycan array binding signal (z-score) [28]: 0.012
- glycan array binding signal (z-score) [29]: -0.311
- glycan array binding signal (z-score) [30]: -0.402
- glycan array binding signal (z-score) [31]: -0.511
- glycan array binding signal (z-score) [32]: -0.335
- glycan array binding signal (z-score) [33]: -0.01
- glycan array binding signal (z-score) [34]: -0.163
- glycan array binding signal (z-score) [35]: -0.493
- glycan array binding signal (z-score) [36]: -0.225
- glycan array binding signal (z-score) [37]: 0.298
- glycan array binding signal (z-score) [38]: -0.539
- glycan array binding signal (z-score) [39]: -0.083
- glycan array binding signal (z-score) [40]: -0.687
- glycan array binding signal (z-score) [41]: -0.096
- glycan array binding signal (z-score) [42]: -0.315
- glycan array binding signal (z-score) [43]: -0.335
